Measurements as given in the RNAGym collection of RNA variant scans (doi:10.7554/elife.90254).
Read counts are not given, so values of variants with three or more changes are uncertain.

B1: LINE1-mini (parent)
chain: GGCAGAGCUCAACACAGCGUGGCAAAGUGGCUGUGGCUAGACUGCC

Variants of: B1
Assay: self-cleavage, relative activity (ratio to wild type); higher = more cleavage; in vitro, sequencing; the parent is a self-cleaving ribozyme

Row | Variant | self-cleavage
1 | G2C A24U G40C | 0.3
2 | G2C A6U A11C C23G G36A U43A | 0.01
3 | G2U A6U A12G U20A | 0.01
4 | G2C C18U G29U | 0.08
5 | G2C C15A C23U C31U C42A | 0.29
6 | G2C C15G C45G | 0.01
7 | G2U A6C U34A | 0.01
8 | G2C U34G G44A | 0.05
9 | G2C U34G G44C | 0.14
10 | G2C A4U G35U | 0.03
11 | G2U C3U C10G C15A | 0
12 | G2U A11C G29U U32C | 0.03
13 | G2C G5U U34G C37U | 0.04
14 | G2C G30U C42U | 0.05
15 | G2C C13U G44A C46A | 0.06
16 | G2U A4C C15G G17A C31U | 0.03
17 | G2U C3A G29U C37G A41U C46U | 0.1
18 | G2U A4C C10A U28G G29C | 0.02
19 | G2U A16G G17C C31U | 0.02
20 | G2U C3U C10A C23A A24C U28C | 0.02
21 | G2C G17A G33A | 0.04
22 | G2U A6G G40U C45G | 0.02
23 | G2C A11U A12U C18G C31G U34C G35U | 0.02
24 | G2C A6U A24U U28C A39U | 0.01

Row | Variant | self-cleavage
25 | G2C G7A G21U | 0.95
26 | G2U A11C G27U C31G G33C C42G | 0.01
27 | G2U A4G G21U G27A | 0.1
28 | G2C G19C A39U | 0
29 | G2U A4G C10A C15A G22U A26U | 0.02
30 | G2C C3A C31U | 0.05
31 | G2C G7A G19A G33A G36C | 0.07
32 | G2U A4U G40U | 0.04
33 | G2U A16C A26G | 0.11
34 | G2C G29C C45U | 0.15
35 | G2C G5C A12U G29U A39U C42U | 0.03
36 | G2C C10G C15A U38C | 0.01
37 | G2U A4U G17C C37U | 0.02
38 | G2U A24U C45A | 0.29
39 | G2U A14U C37A C45A | 0.02
40 | G2C U9G G35U G40A | 0
41 | G2C A25G G40C C46G | 0.01
42 | G2U A16U G17U | 0.04
43 | G2C C8U G27A G36C G44C | 0.01
44 | G2U A12U C15G G29C C46U | 0.01
45 | G2C G36U C37A | 0.13
46 | G2C A16G G19U | 0.05
47 | G2C U9C U32G | 0.04
48 | G2C C3A A16C A25G | 0

Row | Variant | self-cleavage
49 | G2C A11C C31G | 0.02
50 | G2C C18G A25U | 0.02
51 | G2C G19A U34C C37U | 0.04
52 | G2U C3G A4G A11U G17U G21U G29C G36A A39U | 0.01
53 | G2C A11G A16C C31A G33U | 0.01
54 | G2C C3A A41C | 0.02
55 | G2C A25U A41G U43G | 0.01
56 | G2C G17C C45G | 0.71
57 | G2C C3G G19U | 0.15
58 | G2C G27A U28G | 0.06
59 | G2U A4C C31G U43A | 0.03
60 | G2C C13G A24U G29A U32G C37A | 0.02
61 | G2U C3G C8A C13U A39U C45G | 0.25
62 | G2C C10G C31G | 0.01
63 | G2U A4G G5U C8U A11C U20A G40C | 0.02
64 | G2C A26U A41C | 0.17
65 | G2U A12G U38A | 0.02
66 | G2U A14G G33A C45A | 0.02
67 | G2C G17C C23A C37A C42U | 0.35
68 | G2U A4U G29U C31G U32C C45A | 0.01
69 | G2U A11G G44C C45G | 0.01
70 | G2C U38A A41U | 0.08
71 | G2U A12C G17A G21C A26G G35U G40U C42G | 0
72 | G2C G7U U34G | 0.21

Row | Variant | self-cleavage
73 | G2U A16C A26G U38G | 0
74 | G2C G19U A24G G35C C42U | 0.01
75 | G2U A26G G40U | 0.03
76 | G2U A24G G30A G40U | 0.19
77 | G2C C8U C10A G19A | 0.01
78 | G2C U20G C23U C31G G35A A41G | 0.02
79 | G2C U9G C18A | 0.04
80 | G2C C10A U20A G22A | 0.01
81 | G2C C15U U38C | 0.04
82 | G2C C8A U9A C37U A39G C45A | 0.05
83 | G2C U20C U28G U32C U43A | 0.01
84 | G2C C18G G21U | 0.08
85 | G2C U20A A24U A26U G27U G36A U38A C46A | 0.06
86 | G2U C3U C10G G33A C37U | 0.02
87 | G2C A11C G40U A41G C42G | 0.01
88 | G2U C3G C23U U34A | 0.15
89 | G2C C18A G33A G35C C46A | 0.01
90 | G2C A24C U38C | 0.04
91 | G2C C3U G22A G33U | 0.18
92 | G2U A14C U34C U38A | 0.02
93 | G2U A24C U34C A41G | 0.02
94 | G2C U9A C10A G29U A41C | 0.01
95 | G2C G17C A41C | 0.08
96 | G2C U9A A11U | 0.03

Row | Variant | self-cleavage
97 | G2C A16C C18A | 0
98 | G2C A6U A26G G36U | 0.1
99 | G2C A6G C8U A14G G22C G29C G36C C37U | 0
100 | G2C A14G A26C | 0
101 | G2C G19A C45A | 0.03
102 | G2C G17U G22U G44U | 0.02
103 | G2U A6G G30A | 0.04
104 | G2C A12C A25U C45A C46A | 0.03
105 | G2C C10A U38A | 0.01
106 | G2C G33U U34C C45G | 0.08
107 | G2C G22A C45A | 0.38
108 | G2C C15A G22U G30U G44A | 0
109 | G2U A6G C8G C15U C23A G27U | 0.08
110 | G2C C23U U28G | 0.08
111 | G2U C3A U9A G19U G21U U34A | 0.69
112 | G2C G30A U43A G44C | 0.11
113 | G2U A4C C42U G44U | 0.03
114 | G2C C3A G5A C42G | 0.06
115 | G2C C8G C18G G21U | 0.04
116 | G2C C10A A11U G35A | 0.03
117 | G2C G7U A24G C31A | 0.03
118 | G2C G21C G44A | 0.02
119 | G2U C3G A6U | 0.14
120 | G2C A11U A41C | 0.01

Row | Variant | self-cleavage
121 | G2C G5U C8U G22A A26C | 0.03
122 | G2C C3U A6G C10U G40U | 0.03
123 | G2C G27C G30U G44U C45U | 0.04
124 | G2C U38A U43C | 0.35
125 | G2U A6U G19C A41U | 0.06
126 | G2U A26G G29A | 0.08
127 | G2U A6G U9A G17U G29U C45U | 0.03
128 | G2C C13A U20A G36C | 0.2
129 | G2C A6U C10A A14U G30U | 0.02
130 | G2C G29A G30C | 0.15
131 | G2C C3U A4G A11G | 0.01
132 | G2C A6G C8U A12G A16U G30C C46A | 0.07
133 | G2C A6G C37G | 0.03
134 | G2C U32A G40A | 0
135 | G2U C3G A11U C18U G21A C23A G36C C45G | 0.01
136 | G2U A12U A14G G21C A26U | 0.01
137 | G2C C3G A4G C15U A16G G22A G36A C46U | 0.04
138 | G2C U34C C46U | 0.01
139 | G2C G5U G27A C37A | 0.02
140 | G2C C13G A16C | 0.08
141 | G2U A14U G21C C37G | 0.03
142 | G2C U9A G22A G33A G36A | 0.07
143 | G2C A14C A26U C45A | 0.19
144 | G2U A4G A11C A39U | 0.03

Row | Variant | self-cleavage
145 | G2U A6C G7U A14U G29U | 0.05
146 | G2C G7U G19C U32A | 0.06
147 | G2C C3U A14C C18U U20A G33U G35C | 0.05
148 | G2C G5A G44C | 0.09
149 | G2U A24U A26G C31A | 0.01
150 | G2U A6C C23U | 0.05
151 | G2U A6C G27C U28A U38C | 0
152 | G2U A4U C8A A14U G29U G30U A41G G44U | 0.19
153 | G2C C8U G22U A24C C37G | 0.06
154 | G2C C18U U28A G30A G40U | 0.04
155 | G2C G19A C31G | 0.05
156 | G2C A6G C18G | 0.08
157 | G2U A12U G21U | 0.04
158 | G2C A6C C15A | 0.02
159 | G2C A16C A39U | 0.03
160 | G2C A12C A14U G27U G29A G35U | 0
161 | G2U C3G A14U C31U A39G | 0.05
162 | G2C G36U A39G | 0.11
163 | G2C G19C C31U G33U | 0.03
164 | G2U A14C U32C | 0.03
165 | G2C C13A G35A G40U | 0.02
166 | G2U A6U U20A G21U G33C C37A | 0
167 | G2C A14U A16C G40U | 0.46
